Data taken from PubChem BioAssay AID1461 (National Center for Advancing Translational Sciences (NCATS), 2008).
Out of some 220,000 compounds screened, about 2,300 (1%) were called active. This list was built around the results that the source calls inconclusive (neither active nor inactive); the mix of calls is not that of the screen. The call rests on the fitted dose curve; in most records, active means well fitted inhibition curve with a large enough effect; inconclusive means small, poorly fitted or top-dose-only effect, or effect the other way; inactive means no such curve, though single readings can be large or run the other way. Potencies of inconclusive entries are left out as doubtful fits.

biological target: Neuropeptide S receptor (Homo sapiens) (UniProt Q6W5P4); assay: qHTS Assay for Antagonists of the Neuropeptide S Receptor: cAMP Signal Transduction; settings: CHO-NPSR cells, cAMP TR-FRET, antagonist mode; activity change, negative = inhibition: at 38.3 µM (top of the series) unless noted; further: nearly all actives have a fitted effect of over 50% in size
On the % scale 0 is the no-effect control and ±100 the full control effect; potency means the concentration at half of the fitted maximal effect; tags describe the fitted curve by direction and shape.

Chain of UniProt Q6W5P4 (Q6W5P4 whole entry, looked up): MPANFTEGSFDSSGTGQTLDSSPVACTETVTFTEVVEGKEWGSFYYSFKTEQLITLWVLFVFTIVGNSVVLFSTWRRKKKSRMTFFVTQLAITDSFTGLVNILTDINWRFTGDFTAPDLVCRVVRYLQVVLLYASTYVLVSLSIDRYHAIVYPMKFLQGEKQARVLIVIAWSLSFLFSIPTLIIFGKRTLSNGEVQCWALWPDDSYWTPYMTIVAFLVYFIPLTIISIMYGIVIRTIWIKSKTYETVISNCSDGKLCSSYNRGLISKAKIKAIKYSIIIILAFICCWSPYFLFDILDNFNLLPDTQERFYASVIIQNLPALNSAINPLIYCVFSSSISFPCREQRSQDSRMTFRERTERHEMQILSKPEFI

Row | SMILES | Potency | activity change, negative = inhibition
1 | COc1cccc2c1C(=O)c1c(O)c3c(c(O)c1C2=O)C[C@@](O)(C(C)=O)C[C@@H]3O[C@H]1C[C@H](N)[C@H](O)[C@H](C)O1 | inconclusive [inhibitor, partial curve, poor fit] | –
2 | O=C(CSc1ccc2nnc(-c3ccc(Cl)cc3)n2n1)N1CCCc2ccccc21 | inconclusive [inhibitor, single point] | –
3 | COc1cccc(N(C(=O)Cn2nnc3ccccc32)C(C(=O)NCc2ccco2)c2cccnc2)c1 (configuration not stated) | inconclusive [inhibitor, single point] | –
4 | O=c1oc2ccccc2cc1-c1nc2c(s1)CCCC2 | inconclusive [inhibitor, single point] | –
5 | COc1cccc(C(=O)Nc2cccc(SC)c2)c1 | inconclusive [activator, single point] | –
6 | COc1cc(OC)cc(C(=O)N=c2sc3ccccc3n2C)c1 | inconclusive [inhibitor, single point] | –
7 | CCc1nc(N2CCC(C)CC2)c2oc3ccccc3c2n1 | inconclusive [inhibitor, single point] | –
8 | CC1CCC2(CC1)OCC1(CCC3(COC4(CCC(C)CC4)OC3)C1=O)CO2 (configuration not stated) | – | inactive: 8.38%
9 | CCN(CC)c1ccc(NC(=O)C2CC3CCC2C3)cc1 (configuration not stated) | – | inactive: -23.4% [at 46.1 µM]
10 | COc1ccccc1-c1cc(C(F)(F)F)nc(S(=O)(=O)CCCC(=O)Nc2cc(C)on2)n1 | inconclusive [inhibitor, single point] | –
11 | CCCCCCn1c(SCC(=O)Nc2cc(C)on2)nc2ccccc2c1=O | inconclusive [inhibitor, single point] | –
12 | COc1cc2cc(CN(CCCN3CCOCC3)Cc3nnnn3Cc3ccccc3)c(=O)[nH]c2cc1OC | inconclusive [activator, partial curve] | –
13 | COC(=O)C1=C(N)Oc2cc(C)n(CC3CCCO3)c(=O)c2C1c1ccc(Cl)c(Cl)c1 (configuration not stated) | inconclusive [inhibitor, partial curve, poor fit] | –
14 | Cc1cccc(N2CN=c3s/c(=C\c4ccncc4)c(=O)n3C2)c1 | inconclusive [inhibitor, single point] | –
15 | O=C1c2cnc3nc(SCc4ccc(Cl)cc4)nn3c2CC2c3ccccc3CCN12 (configuration not stated) | inconclusive [inhibitor, partial curve] | –
16 | CCOC(=O)C(CC)(CC)C(=O)/C=C/c1ccc(Br)cc1 | inconclusive [inhibitor, single point] | –
17 | O=c1c2c(nc3c(-c4ccc(Cl)cc4)c[nH]n13)CCC2 | – | inactive: -14.5%
18 | CCOc1cc(/C=C2\SC(=N)N(c3nonc3N)C2=O)ccc1OCC(N)=O | – | inactive: 20.2%
19 | COc1cc2[nH]c(=S)nc(NCCc3ccc(C)cc3)c2cc1OC | inconclusive [inhibitor, single point] | –
20 | CN(c1ccccc1C(=O)Nc1ccc(S(=O)(=O)N2CCCCC2)cc1)S(C)(=O)=O | inconclusive [inhibitor, single point] | –
21 | FC(F)(F)C(Oc1nc(Nc2ccc(Cl)cc2)nc(N2CCOCC2)n1)C(F)(F)F | inconclusive [inhibitor, single point] | –
22 | COc1ccc(CCNC(=O)NC23CC4CC(CC(C4)C2)C3)cc1 | inconclusive [inhibitor, single point] | –
23 | C=CCn1c(SCC(=O)Nc2sccc2C(N)=O)nc2sc(CC)cc2c1=O | inconclusive [inhibitor, partial curve, poor fit] | –

Row | SMILES | Potency | activity change, negative = inhibition
24 | CC1CCCN(C(C(=O)Nc2ccc(C(C)C)cc2)c2ccc3c(c2)OCO3)C1 (configuration not stated) | inconclusive [inhibitor, single point] | –
25 | CC(=O)Nc1cccc(OC(=O)N2CCOCC2)c1 | inconclusive [inhibitor, single point] | –
26 | Cc1ccccc1/C=N/n1c(-c2ccccn2)n[nH]c1=S | – | inactive: 13.2%
27 | COc1ccc(OC)c(S(=O)(=O)N2CCC(C(=O)Nc3cc(C)ccc3C)CC2)c1 | inconclusive [inhibitor, single point] | –
28 | CCN(C(=O)CN1CCN(c2cccc(C(F)(F)F)c2)CC1)c1c(N)n(Cc2ccccc2)c(=O)[nH]c1=O | – | inactive: -6.87%
29 | COCCN1C(=O)/C(=C/c2ccc(OCc3ccc(C(=O)O)cc3)c(OC)c2)SC1=Nc1ccccc1 | active: 12.6 µM | –
30 | O=C(COC(=O)c1ccc2c(c1Cl)C(=O)c1ccccc1C2=O)NC1CC1 | – | inactive: -0.355%
31 | Cc1ccc(-c2c(C(=O)N(C)Cc3ccccc3)oc(=O)c3ccccc23)cc1 | inconclusive [inhibitor, single point] | –
32 | COc1ccc(C(=O)c2c(C(F)(F)F)oc3c2C(=O)c2ccccc2C3=O)cc1OC | inconclusive [inhibitor, single point] | –
33 | CC(C)CC(=O)Nc1cc([N+](=O)[O-])ccc1Cl | – | inactive: 6.1% [at 46.1 µM]
34 | CCCCc1nnc(NC(=O)C2CC(=O)N(c3ccc4c(c3)OCCO4)C2)s1 (configuration not stated) | – | inactive: -12.5% [at 46.1 µM]
35 | COc1cc(OC)c(-c2nn3c(C4CCCCC4)nnc3s2)cc1OC | inconclusive [inhibitor, partial curve] | –
36 | CC(=O)N(CCP(=O)(c1ccccc1)c1ccccc1)Cc1ccco1 | inconclusive [inhibitor, partial curve] | –
37 | Cc1cc(/C=N/n2cnnc2)c(C)n1-c1ccc2c(c1)OCO2 | inconclusive [inhibitor, single point] | –
38 | CC(=O)N=c1sc2nc3ccccc3nc2n1N(C(C)=O)C(C)=O | active: 12.6 µM | –
39 | Cc1cc(=O)[nH]c(N=N/C(=N/Nc2ccccc2C)c2ccccc2)n1 | – | inactive: -4.17% [at 46.1 µM]
40 | CCOC(=O)c1nnc(-c2ccc(C)cc2)nc1Oc1ccc(Cl)cc1Cl | inconclusive [inhibitor, single point] | –
41 | COc1cccc(/C=N/Nc2ncnc(Cl)c2N)c1O | – | inactive: -17.6%
42 | S=C(Nc1ccccc1)NC1CCN(Cc2ccccc2)CC1 | – | inactive: -10.5%
43 | Cc1ccc(S(=O)(=O)c2c(C)nn(C(C)(C)C)c2OC(=O)C2CCCC2)cc1 | inconclusive [inhibitor, single point] | –
44 | Cc1ccc(C(=O)Cn2c(C(=O)/C=C/c3ccccc3)nc3ccccc32)cc1 | inconclusive [inhibitor, single point] | –
45 | Cc1nnc(SCc2cccc3ccccc23)s1 | – | inactive: 6.13%
46 | C=CCn1c(=O)/c(=C/c2ccc(O)cc2)s/c1=C(/C#N)c1nnc2n1CCCCC2 | inconclusive [inhibitor, partial curve] | –

Row | SMILES | Potency | activity change, negative = inhibition
47 | COc1c(C)cccc1C(=O)Nc1cc(Cl)ccc1N1CCOCC1 | inconclusive [inhibitor, single point] | –
48 | Cc1nc(C)c(C(=O)Nc2ncc([N+](=O)[O-])s2)o1 | – | inactive: -21.6%
49 | COC(=O)c1ccccc1NC(=O)/C=C/c1cc(OC)c(OC)c(OC)c1 | inconclusive [inhibitor, single point] | –
50 | c1cc(CNc2ccc(N3CCOCC3)cc2)ccn1 | – | inactive: -22.1% [at 46.1 µM]
51 | Cc1cccc(OCC(=O)NC(C)C(=O)N/N=C/c2c(OCc3ccccc3)ccc3ccccc23)c1 (configuration not stated) | inconclusive [inhibitor, partial curve, poor fit] | –
52 | CCCCCCc1nc2ccccc2c(=O)n1NC(=O)c1c(O)c2c(n(CC(C)C)c1=O)CCCC2 | – | inactive: -22% [at 46.1 µM]
53 | CN(C)S(=O)(=O)Oc1ccsc1C(=O)Nc1ccc(Cl)c(Cl)c1 | inconclusive [inhibitor, single point] | –
54 | O=C(CNS(=O)(=O)c1ccc2ccccc2c1)OCC(=O)c1ccc(Br)s1 | inconclusive [inhibitor, full curve, poor fit] | –
55 | c1ccc(-c2cc(-c3nnc4n3N=C(c3ccc5ccccc5c3)CS4)[nH]n2)cc1 | inconclusive [inhibitor, partial curve] | –
56 | COCCOC(=O)c1[nH]c2c(c1C)C(=O)CC(c1ccccc1)C2 (configuration not stated) | inconclusive [activator, partial curve, poor fit] | –
57 | Cc1cccc(C)c1Nc1c(-c2ccccn2)nc2ccccn12 | inconclusive [inhibitor, single point] | –
58 | COc1cc2c(cc1OC)CN(CC(=O)Nc1ccc(C)cc1)CC2 | inconclusive [inhibitor, full curve, poor fit] | –
59 | CC(=O)NC1=NC(=O)/C(=C/c2cc(C)n(-c3ccc(NC(C)=O)cc3)c2C)S1 | – | inactive: -33.4%
60 | CC(C)CN1CCN(Cc2cccn2-c2cccnc2)CC1CCO (configuration not stated) | – | inactive: -5.09%
61 | CCN(CC)S(=O)(=O)c1ccc(F)c(C(=O)NCCC(C)C)c1 | – | inactive: 7.71% [at 46.1 µM]
62 | COc1ccc(C(=O)Nc2cccc(/C(C)=N/NC(=O)c3ccc([N+](=O)[O-])c(C)c3)c2)cc1OC | inconclusive [inhibitor, single point] | –
63 | CCOC(=O)Cc1cc(=O)c2c(=O)n(-c3ccccc3)[nH]c2[nH]1 | – | inactive: -9.77% [at 46.1 µM]
64 | Cc1ccc(-c2cc([C@H]3[C@H]4C=CC[C@@H](C)[C@@H]4C(=O)N3Cc3ccccc3)ccc2F)cc1 | inconclusive [inhibitor, single point] | –
65 | COc1cccc(/C=N/NC(=O)c2ccccc2N(Cc2ccccc2)S(=O)(=O)c2ccccc2)c1OC | inconclusive [inhibitor, partial curve] | –
66 | Cc1cc(NC(=O)c2cnn3c(C(F)(F)F)cc(-c4ccccc4)nc23)no1 | inconclusive [inhibitor, partial curve, poor fit] | –
67 | CCOC(=O)CCCCC(=O)c1[nH]c(=O)[nH]c1CSc1nc(C)cc(C)n1 | – | inactive: -9.35% [at 46.1 µM]
